Experimental data from paper PMC3750179.
Substitutions are numbered along the chain they refer to. No constants are given. Whether binding was seen depends on the method and setting. In cells and extracts the contact can be indirect. Some binding calls cover weakened binding; strength is not graded here. Sequences can lack the tags named with a protein. One block for each molecule: values may come before it.

The chains behind the UniProt entries cited, without tags or fusion partners.
UniProt Q6WVG3: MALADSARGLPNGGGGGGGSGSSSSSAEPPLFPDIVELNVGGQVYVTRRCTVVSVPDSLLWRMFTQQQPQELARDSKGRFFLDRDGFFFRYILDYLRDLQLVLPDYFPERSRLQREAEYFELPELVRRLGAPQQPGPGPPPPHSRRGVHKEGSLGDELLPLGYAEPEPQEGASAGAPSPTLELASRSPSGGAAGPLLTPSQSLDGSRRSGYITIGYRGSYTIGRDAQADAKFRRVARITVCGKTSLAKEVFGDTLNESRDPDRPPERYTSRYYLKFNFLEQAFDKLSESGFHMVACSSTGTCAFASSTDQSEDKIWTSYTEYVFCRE

Columns and labels:
HA-GABAB2 = molecular target: T1, HA-GABAB2 (UniProt O88871); experiment: pull-down; surface biotinylation of transfected COS-1 cells, 120 min at 37 °C to allow internalization, surface biotin removed with glutathione, biotinylated proteins purified with NeutrAvidin-Sepharose, Western blot; the text calls it co-immunoprecipitation
T1 sequence: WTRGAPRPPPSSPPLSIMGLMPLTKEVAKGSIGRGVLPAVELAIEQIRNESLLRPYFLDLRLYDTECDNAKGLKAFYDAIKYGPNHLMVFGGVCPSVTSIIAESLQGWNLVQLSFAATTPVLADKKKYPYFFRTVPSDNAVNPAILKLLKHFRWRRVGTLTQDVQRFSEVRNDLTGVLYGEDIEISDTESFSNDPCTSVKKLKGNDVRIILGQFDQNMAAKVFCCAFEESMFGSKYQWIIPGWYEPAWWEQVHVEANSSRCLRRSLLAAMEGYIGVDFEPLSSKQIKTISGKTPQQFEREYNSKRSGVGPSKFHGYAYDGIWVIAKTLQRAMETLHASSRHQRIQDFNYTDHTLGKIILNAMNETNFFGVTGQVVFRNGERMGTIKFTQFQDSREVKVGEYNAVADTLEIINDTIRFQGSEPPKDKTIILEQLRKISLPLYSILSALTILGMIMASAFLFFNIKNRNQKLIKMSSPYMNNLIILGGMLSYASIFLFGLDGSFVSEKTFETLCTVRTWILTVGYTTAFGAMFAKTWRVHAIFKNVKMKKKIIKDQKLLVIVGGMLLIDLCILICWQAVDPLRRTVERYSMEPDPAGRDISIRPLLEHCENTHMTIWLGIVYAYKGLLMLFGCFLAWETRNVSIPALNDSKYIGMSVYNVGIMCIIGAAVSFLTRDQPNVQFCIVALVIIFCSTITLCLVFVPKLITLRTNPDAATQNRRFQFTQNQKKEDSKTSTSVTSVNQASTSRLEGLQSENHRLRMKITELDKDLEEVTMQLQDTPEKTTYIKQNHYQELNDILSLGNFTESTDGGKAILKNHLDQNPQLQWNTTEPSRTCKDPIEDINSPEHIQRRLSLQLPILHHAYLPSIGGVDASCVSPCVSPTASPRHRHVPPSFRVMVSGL

HA-GABAB2-YFP1 [1] = molecular target: T2, HA-GABAB2-YFP1 (UniProt O88871); experiment: co-IP; co-immunoprecipitation of the YFP-fragment fusions, data not shown
T2 sequence: T1 sequence

HA-GABAB2-YFP1 [2] = molecular target: T2, HA-GABAB2-YFP1; experiment: split reporter; YFP protein fragment complementation (YFP1 and YFP2 at the C termini) in transfected COS-1 cells, confocal microscopy, ER marked with anti-calnexin
HA-GABAB2Y902A-YFP1 = molecular target: T3, HA-GABAB2Y902A-YFP1 (UniProt O88871); experiment: as above
T3 sequence: T1 sequence with Y862A

FLAG-KCTD12 = FLAG-KCTD12 (UniProt Q6WVG3); experiment: co-IP; COS-1 cells pulse-labelled with [35S]methionine for 15 min; lysate (150 mM NaCl, 10 mM Tris-HCl, 5 mM EDTA, 1.5% Nonidet P-40) precipitated with mouse anti-FLAG and protein A-agarose overnight at 4 °C; autoradiography cross-correlated with Western blots

binding (HA-GABAB2): binds
Molecule: FLAG-KCTD12 (from UniProt Q6WVG3 1-327)

binding (HA-GABAB2-YFP1 [1]): binds | binding (HA-GABAB2-YFP1 [2]): binds | binding (HA-GABAB2Y902A-YFP1): no binding
Molecule: FLAG-KCTD12-YFP2 (from UniProt Q6WVG3 1-327)

binding (FLAG-KCTD12): binds
B1: Myc-GABAB2 (receptor, UniProt O88871 41-940)
chain: T1 sequence
